Assay results as given in a compilation of properties of binary mixtures (doi:10.1016/j.molliq.2021.117187).
The densities may have been worked out from excess volumes.

Experiment: xn = mol fraction of the nth substance listed
Settings: 100 kPa

CCCC[n+]1ccn(C)c1.F[B-](F)(F)F + CCOC(C)=O
mass density [kg/m3]
Settings	x1 = 0.1014	x1 = 0.2013	x1 = 0.3012	x1 = 0.3885	x1 = 0.4936	x1 = 0.5911	x1 = 0.6978	x1 = 0.7997	x1 = 0.8998
298.15 K	951.5	999.6	1041.3	1072.7	–	1130.2	1153.2	–	1186.2
303.15 K	945.8	–	1036.4	1068	1100.5	1126	1149.2	1167.7	1182.7
308.15 K	940.3	989.4	1031.6	1063.4	1096.1	–	–	1164.1	1179.3
313.15 K	934.9	–	1026.8	1058.7	1091.7	1117.6	1141.6	1160.6	1175.9
318.15 K	929.4	979.4	1022	1054.1	1087.3	–	1137.8	1157.1	1172.6
323.15 K	923.9	974.3	1017.1	1049.4	1082.9	1109.4	1134	1153.7	1169.3
